Reference: publication PMC6919601, “Identification of Plasmodium dipeptidyl aminopeptidase allosteric inhibitors by high throughput screening” (PLoS ONE, 2019)
The campaign covered roughly 110,000 compounds. About 230 (0.21%) showed an effect of 50% or more. Some of the results follow.

Target: DPAP1 (Plasmodium falciparum, UniProt Q8IIJ9)
Assay: primary screen, percent inhibition; read by cleavage of a fluorogenic dipeptide substrate; higher = more effect of the substance
Design: species or system P. falciparum D10 trophozoite lysates; single well
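Note: 30 min substrate incubation versus DMSO and 10 µM JCP410 controls.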

Sequence of DPAP1 (Q8IIJ9 whole entry, looked up): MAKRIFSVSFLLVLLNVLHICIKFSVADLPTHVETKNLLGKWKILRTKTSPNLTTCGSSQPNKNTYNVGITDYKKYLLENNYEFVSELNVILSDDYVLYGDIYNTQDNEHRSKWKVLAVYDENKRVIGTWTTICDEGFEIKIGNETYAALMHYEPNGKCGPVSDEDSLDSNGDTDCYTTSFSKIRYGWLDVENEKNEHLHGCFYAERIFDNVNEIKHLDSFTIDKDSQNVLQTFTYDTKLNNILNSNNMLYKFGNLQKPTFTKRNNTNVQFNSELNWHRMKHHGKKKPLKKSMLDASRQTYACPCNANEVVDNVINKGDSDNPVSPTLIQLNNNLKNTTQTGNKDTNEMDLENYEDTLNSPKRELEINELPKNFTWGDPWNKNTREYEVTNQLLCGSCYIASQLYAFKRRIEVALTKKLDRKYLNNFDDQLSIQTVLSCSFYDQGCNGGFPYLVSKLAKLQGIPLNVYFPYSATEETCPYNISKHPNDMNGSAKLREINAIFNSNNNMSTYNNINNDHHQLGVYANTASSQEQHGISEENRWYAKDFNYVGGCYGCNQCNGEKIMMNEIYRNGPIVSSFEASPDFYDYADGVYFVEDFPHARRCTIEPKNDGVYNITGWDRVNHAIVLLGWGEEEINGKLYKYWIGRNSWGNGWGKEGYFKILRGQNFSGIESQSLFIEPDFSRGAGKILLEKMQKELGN

Row | Compound | % Inhibition @ 10 uM [%]
1 | CC(NC(=O)Nc1ccc(Cl)cc1)c1ccccc1 (stereo not drawn) | -4.72
2 | COc1cccc([C@H]2NCC[C@@]3(O)CCCC[C@H]23)c1OC | 1.66
3 | CCOc1ccccc1C1C2=C(O)CCCC2=NC(C)=C1C(=O)Nc1ccccc1OC (stereo not drawn) | 0.851
4 | CCOC(=O)N1CCC(NC23CC4CC(CC(C4)C2)C3)CC1 | -2.95
5 | Fc1ccc(-c2csc(Nc3cccnc3)n2)cc1 | 4.96
6 | COc1ccccc1NC(=O)c1c(NC(=O)CCC(=O)O)sc2c1CCC(C)C2 (stereo not drawn) | 9.59
7 | O=C1c2ccc([N+](=O)[O-])cc2C(=O)N1Cc1ccccc1 | 0.986
8 | Cc1ccccc1OCCSc1nc2ccccc2n1CCO | -4.89
9 | Sc1nnc(CN2CCC(Cc3ccccc3)CC2)n1-c1ccccc1 | -1.5
10 | O=C(CCCN1C(=O)c2ccccc2Sc2ncccc21)NCc1ccccc1Cl | 6.35
11 | Cc1nn(CC(=O)NCc2cccnc2)c(=O)c2ccccc12 | 2.95
12 | CC(CCc1ccc(O)cc1)NC1CCCC1 (stereo not drawn) | 0.565
13 | Cc1c(CCC(=O)N2CCOCC2)c(=O)oc2cc3occ(C(C)(C)C)c3cc12 | -2.57
14 | CC(=O)Nc1ccc(S(=O)(=O)N2c3ccc(F)cc3CCC2C)cc1 (stereo not drawn) | 0.316
15 | Cc1ccccc1Cn1cc(NC(=O)c2cc(CC(C)C)on2)cn1 | -3.77
16 | Cc1ccc(C(C)C)c(OCCNS(C)(=O)=O)c1 | 1.76
17 | O=C(Nc1ccc(NC(=O)C2CC2c2ccccc2)cc1)C1CC1c1ccccc1 (stereo not drawn) | 7
18 | C=CCNc1nc(N)c(C(=O)c2ccccc2)s1 | -3.77
19 | CCC(NC(=O)c1ccoc1C)c1ccccc1 (stereo not drawn) | 4.98
20 | CC1=C(C(=O)OCCCc2ccccc2)C(c2ccccc2C(F)(F)F)CC(=O)N1 (stereo not drawn) | 1.58
21 | CC(C)N(CCCNC(=O)Cn1cccc1C(=O)c1ccccc1)Cc1ccccc1 | -0.522

Row | Compound | % Inhibition @ 10 uM [%]
22 | COc1ccc(OC)c(N(CC(=O)Nc2ccccc2)S(=O)(=O)c2ccc(C)cc2)c1 | 3.17
23 | CC(CCc1ccccc1)NC(=O)CSc1nc2cccnc2[nH]1 (stereo not drawn) | 6.3
24 | Cc1cccc(-n2nnc(-c3nsc(NC(=O)c4ccc(Cl)cc4)n3)c2C)c1 | 0.92
25 | CC(Oc1ccccc1)C(=O)Nc1ccc(Cl)cc1 (stereo not drawn) | -3.28
26 | O=C(O)CCCC(=O)N1N=C(c2ccco2)CC1c1ccco1 (stereo not drawn) | -0.366
27 | COc1ccc(C(=O)N2CCOC(COc3ccccc3)C2)cc1OC (stereo not drawn) | 2.72
28 | CCN(CC)Cc1cc(CCNC(=O)c2ccc(Cl)cc2)ccc1O | -2.73
29 | O=C(O)c1cccc(S(=O)(=O)N2CCN(c3ccccc3)CC2)c1 | -4.6
30 | COc1ccc(CCNCc2c(C(=O)O)c(C)n(Cc3ccccc3F)c2C)cc1OC | 1.41
31 | Cn1c(C(=O)NCCCN2CCOCC2)cc2sccc21 | -6.68
32 | CCS(=O)(=O)c1ncc(Cl)c(C(=O)Nc2sc3c(c2C(=O)NCCOC)CCCC3)n1 | 5.29
33 | COc1ccc(NC(=O)CC2SC(Nc3ccccc3Cl)=NC2=O)c(OC)c1 (stereo not drawn) | 5.03
34 | Cc1cc(C)c2c(n1)SCC(=O)N2CC(=O)NCCc1ccc(Cl)cc1 | 2.65
35 | CCC(C)Oc1ccc(/C=C2/NC(=O)N(CC(=O)Nc3cccc(C)c3)C2=O)cc1 (stereo not drawn) | -5.13
36 | COCCCNC(=O)CCCn1nc(-c2ccccc2)c2cc(Cl)ccc21 | -1.37
37 | COc1ccccc1OC(c1ccccc1)P(=O)(OC)OC (stereo not drawn) | -6.06
38 | CC12CN3CC(C)(CN(C1)C3c1ccccc1F)C2 (stereo not drawn) | -1.2
39 | CC1CCCCC1NC(=O)CCCc1cn(C)c2ccccc12 (stereo not drawn) | 3.66
40 | CCOCCCNC(=O)C(NC(=O)c1ccc2c(c1)OCO2)c1ccccc1 (stereo not drawn) | 5.11
41 | CCC(C(=O)NCc1ccccc1Cl)n1nc(C)n2c(cc3sccc32)c1=O (stereo not drawn) | -1.58
42 | COc1cc(C(CC(=O)O)N2Cc3ccccc3C2=O)cc(OC)c1OC (stereo not drawn) | -1.03

Row | Compound | % Inhibition @ 10 uM [%]
43 | O=C(Cn1nnc2sc(-c3ccccc3)cc2c1=O)N1CCCCCC1 | -2.71
44 | Cc1cc(-c2cc(C(=O)O)c3cc(Br)ccc3n2)c(C)s1 | -11.1
45 | CC1c2nc3ccccc3n2C(CC(=O)NCc2ccc(Cl)cc2)C(=O)N1Cc1ccccc1 (stereo not drawn) | 0.44
46 | CCc1ccc(C2C(C#N)=C(N)Oc3[nH]nc(-c4cc(OC)c(OC)c(OC)c4)c32)cc1 (stereo not drawn) | 10
47 | CCCOc1ccc2oc(=O)c3c(c2c1)CCCN3C(=O)CN1CCCCC1CC (stereo not drawn) | 7.43
48 | O=C(CC(c1ccc(F)cc1)N1Cc2ccccc2C1=O)NCc1ccco1 (stereo not drawn) | -6.5
49 | O=C(NCc1ccc2c(c1)OCO2)C1CC(=O)N(C2CCCCCC2)C1 (stereo not drawn) | -1.34
50 | CCn1c2ccc(F)cc2c2nc(C)sc21 | -1.33
51 | C=CCNC(=O)CN(c1ccc(OC)c(Cl)c1)S(=O)(=O)c1ccccc1 | 0.324
52 | CS(=O)(=O)c1ccc(-c2cccc([C@H](N[C@@H](CC3CCCCC3)C(=O)NC3(C#N)CC3)C(F)(F)F)c2)cc1 | -4.82
53 | COc1ccc(-c2nc(S)n(CN3CCC(c4ccccc4)CC3)n2)cc1 | 14.1
54 | Cc1ccc(NC(=O)CCC2CCCC2)nc1 | 0.907
55 | O=C(Cn1nc(Cc2ccncc2)c2ccccc2c1=O)NC1CCN(Cc2ccccc2)CC1 | 0.44
56 | CCOc1ccc(CCNCc2c(C(=O)O)c(C)n(Cc3cc(C)ccc3C)c2C)cc1OCC | 1.41
57 | CCc1ccccc1N(CC(=O)N(CC)CC)S(=O)(=O)c1ccc(C)cc1 | 8.26
58 | CC(C)c1ccc2c(c1)C(N1CCN(C)CC1)=Cc1cccnc1S2 | 5.49
59 | Cc1ccc(CN(CC(=O)O)S(=O)(=O)c2ccc(Cl)cc2)cc1 | -0.661
60 | O=C(Cc1ccccc1)Nc1ccc(-c2ccc(NC(=O)Cc3ccccc3)cc2)cc1 | 4.33
61 | COc1ccc(NC(=O)CN2c3cccc4cccc(c34)S2(=O)=O)cc1 | -5.72
62 | Cc1cc(C)c2c(n1)nn1c(C)c(CCC(=O)NCCCN3CCCC3=O)c(C)nc21 | -4.24
63 | O=C(c1ccc2c(Cl)c3c(nc2c1)CCCC3)N1CCC2(CC1)OCCO2 | -1.24
